{"source": "PubChem BioAssay AID463173", "about": "(ICCB-Longwood Screening Facility, Harvard Medical School, 2010)", "note": "The whole screen tested about 52,000 compounds, of which about 1,700 (3.3%) were called active. Cut-off read from the data, not from the text of the source: active = survival mostly below about 52% (no sharp cut-off); inactive = mostly above about 56%. The list shows a part of the results."}
{"test_system": "Wild type", "experiment": "growth inhibition of S. aureus wild type versus tarO mutant, primary screen, teichoic acid synthesis inhibitors, RN4220, OD600 (AID 463173)", "settings": "S. aureus RN4220 wild type/DeltatarO growth, OD600, 18 h, active compounds read low, screened at 18.75 µg/mL (by protocol)"}
{"smiles": "O=C(NCc1cccc(F)c1)c1ccc(-n2cnc3cccnc32)cc1", "survival": "inactive: 113%"}
{"smiles": "Cc1ccc(-n2c(C)nc3c(cnn3-c3ccccc3C)c2=O)cc1F", "survival": "inactive: 115%"}
{"smiles": "CCc1ccc2oc(-c3ccc(NC(=O)c4ccc(OC)c(Br)c4)cc3)nc2c1", "survival": "inactive: 75%"}
{"smiles": "Cc1ccc(-c2cc(C(F)(F)F)n3nc(C(=O)Nc4ccc(Cl)c(C(F)(F)F)c4)cc3n2)cc1", "survival": "inactive: 72%"}
{"smiles": "Cn1cc(S(=O)(=O)c2ccccc2)c(=O)c2cc(F)c(N3CCN(c4ccccc4)CC3)cc21", "survival": "inactive: 135%"}
{"smiles": "Cc1cccc(-n2c(-c3ccccc3)cn3c4c(=O)[nH]c(=O)n(C)c4nc23)c1", "survival": "inactive: 160%"}
{"smiles": "CCOC(=O)C1CCN(C(c2cc3ccc(OC)cc3n3nnnc23)c2nnnn2C2CCCC2)CC1", "note": "(centres undefined)", "survival": "inactive: 105%"}
{"smiles": "Cc1cc(C)c(Cn2c3ccccc3c3cnn(CC(=O)N4CCCCCC4)c(=O)c32)c(C)c1", "survival": "active: 1%"}
{"smiles": "Cc1cccc(C)c1OCC(=O)Nc1nc(-c2ccc(Br)cc2)ns1", "survival": "inactive: 78%"}
{"smiles": "O=C(Cn1c(=O)n(-c2cccc(Cl)c2)c(=O)c2sc3ccccc3c21)N1CCCC1", "survival": "inactive: 71%"}
{"smiles": "CCOc1ccc(C(=O)Nc2c(C(=O)Nc3ccccc3F)oc3ccccc23)cc1OCC", "survival": "inactive: 70%"}
{"smiles": "Cc1cc(C)cc(-n2c(C)cc(/C=N/NC(=O)CSc3ncccn3)c2C)c1", "survival": "inactive: 124%"}
{"smiles": "CCc1ccc2nc(N3CCCC3)c(C#N)cc2c1", "survival": "inactive: 108%"}
{"smiles": "CCOC(=O)CN1C(=O)C(O)(CC(=O)c2cc(OC)ccc2OC)c2ccccc21", "note": "(centres undefined)", "survival": "inactive: 137%"}
{"smiles": "COC(=O)c1cc(C)nc2c1c(=O)nc(SCc1ccccc1F)n2C1CC1", "survival": "inactive: 77%"}
{"smiles": "CC(=O)c1ccc(NC(=O)c2c3c(nc4ccccc24)C(=O)N(C2CCCCC2)C3)cc1", "survival": "inactive: 82%"}
{"smiles": "O=S1(=O)c2ccccc2N(Cc2ccccc2)c2ccccc21", "survival": "inactive: 69%"}
{"smiles": "CCN(CC)CCCNC(=O)C1CCN(S(=O)(=O)CC)CC1", "survival": "inactive: 124%"}
{"smiles": "CC(=O)c1cc2c(cc1NC(=O)c1c(C)nn(-c3ccc(C)cc3)c1-n1cccc1)OCO2", "survival": "inactive: 82%"}
{"smiles": "CC1CCN(Cc2c(O)ccc3c(=O)c(-c4cccc(Cl)c4)c(C(F)(F)F)oc23)CC1", "survival": "inactive: 65%"}
{"smiles": "COc1cccc(N2CCN(C(=O)c3cnn(C(C)(C)C)c3C3CCN(C(=O)OC(C)(C)C)CC3)CC2)c1", "survival": "inactive: 81%"}
{"smiles": "O=C(c1ccc2c(c1)CCN2S(=O)(=O)c1ccccc1)N1CCN(c2ccc(F)cc2)CC1", "survival": "inactive: 77%"}
{"smiles": "O=C(Nc1cccc(Br)c1)N1CCC(CN2CCCCC2)CC1", "survival": "inactive: 75%"}
{"smiles": "Cc1ccc(NC(=O)CSc2nc3ncccc3[nH]2)cc1F", "survival": "inactive: 128%"}
{"smiles": "COc1ccc(OCCn2cc(C(=O)C3CCCCC3)c3ccccc32)cc1", "survival": "inactive: 31%"}
{"smiles": "O=C(NCc1ccc(Cl)cc1)C(=O)Nc1ccc(Br)cc1", "survival": "inactive: 81%"}
{"smiles": "Nc1cc(N)nc(SCC(=O)NCc2ccccc2)n1", "survival": "inactive: 97%"}
{"smiles": "CCc1cccc(NC(=O)Cn2c(=O)n(Cc3ccccc3)c(=O)c3c2c2cc(OC)ccc2n3C)c1", "survival": "inactive: 82%"}
{"smiles": "COc1ccc(C2=NN(C(=O)CCC(=O)O)C(c3ccccc3F)C2)cc1OC", "note": "(centres undefined)", "survival": "inactive: 99%"}
{"smiles": "COC(=O)c1c(NC(=O)CCCOc2ccc(C(C)(C)C)cc2)sc2c1CCC(C)C2", "note": "(centres undefined)", "survival": "inactive: 30%"}
{"smiles": "COCc1[nH]nc2c1C1(CCC(C(C)(C)C)CC1)C(C#N)=C(N)O2", "note": "(centres undefined)", "survival": "inactive: 113%"}
{"smiles": "O=C(NCCc1csc(-c2ccc(Cl)cc2)n1)c1cccs1", "survival": "inactive: 68%"}
{"smiles": "CCc1ccccc1NC(=O)Cn1c(-c2nonc2N)nc2ccccc21", "survival": "inactive: 90%"}
{"smiles": "CCN(C(=O)Cn1nc(Cc2cccnc2)c2ccccc2c1=O)c1ccccc1F", "survival": "inactive: 76%"}
{"smiles": "O=S(=O)(Nc1ccc2oc3c(c2c1)CCCC3)c1cc(Cl)ccc1Cl", "survival": "inactive: 46%"}
{"smiles": "COC(=O)c1ccc(-n2nc(C)cc2C)cc1", "survival": "inactive: 106%"}
{"smiles": "CC1CCN(C(=O)CSc2nnc(-c3ccccc3Cl)o2)CC1", "survival": "inactive: 110%"}
{"smiles": "COc1ccc(NC(=O)/C(C#N)=C/c2ccc(OCc3cc(=O)n4nc(C)sc4n3)cc2)cc1", "survival": "inactive: 86%"}
{"smiles": "Cc1cccc(NC(=O)C2CCN(c3nnc(-n4c(C)ccc4C)s3)CC2)c1C", "survival": "inactive: 132%"}
{"smiles": "COc1ccc(-c2nnc(C3CCN(C(=O)c4ccccc4F)CC3)o2)cc1", "survival": "inactive: 85%"}
{"smiles": "Cc1ccc(S(=O)(=O)NCCc2cn3c(C)csc3n2)cc1", "survival": "inactive: 63%"}
{"smiles": "COc1ccc(C(=O)CSc2nc(C)cc(C)n2)cc1C", "survival": "inactive: 114%"}
{"smiles": "COc1ccc(-c2onc(C)c2C)cc1S(=O)(=O)N1c2ccccc2CC1C", "note": "(centres undefined)", "survival": "inactive: 59%"}
{"smiles": "COc1ccc(C(=O)n2cnnc2N)cc1", "survival": "inactive: 106%"}
{"smiles": "COc1ccc(C2Sc3ccccc3NC3=C2C(=O)c2ccccc23)c(OC)c1OC", "note": "(centres undefined)", "survival": "inactive: 90%"}
{"smiles": "Cc1ccc2nc(-c3cc(NC(=O)c4ccc5c(c4)OCCO5)ccc3Cl)oc2c1", "survival": "inactive: 68%"}
{"smiles": "Cc1ccc(N2CC(c3nc4ccccc4n3CCC3CCCCC3)CC2=O)cc1", "note": "(centres undefined)", "survival": "inactive: 80%"}
{"smiles": "CCOc1ccc(C(CC(=O)O)N2Cc3ccccc3C2=O)cc1OC", "note": "(centres undefined)", "survival": "inactive: 77%"}
{"smiles": "COc1ccc(C2c3c(oc4ccc(F)cc4c3=O)C(=O)N2Cc2ccc3c(c2)OCO3)cc1", "note": "(centres undefined)", "survival": "inactive: 77%"}
{"smiles": "Cc1cccc(N(C)C(=O)c2cc(S(=O)(=O)N3CCCC3)cn2C)c1", "survival": "inactive: 83%"}
{"smiles": "COC(=O)c1ccccc1NC(=O)NCCc1c(C)nn(C)c1C", "survival": "inactive: 82%"}
{"smiles": "CCc1ccc(CNCc2c(C(=O)O)n(Cc3cccc(F)c3)c3cc(OC)ccc23)cc1", "survival": "inactive: 63%"}
{"smiles": "N#C/C(=C\\c1ccccc1)c1nc(-c2cc3cc(Br)ccc3oc2=O)cs1", "survival": "inactive: 75%"}
{"smiles": "Cc1cccc(NC(=O)c2c(NC(=O)C(F)(F)F)sc3c2CCCCC3)c1", "survival": "active: -3%"}
{"smiles": "CCOC(=O)c1cccc(Nc2c3c(nc4ccccc24)CCC3)c1", "survival": "inactive: 73%"}
{"smiles": "O=C1CC(c2ccccc2)Cc2[nH]c(=O)c(C(=O)Nc3cccc(F)c3)cc21", "note": "(centres undefined)", "survival": "inactive: 85%"}
{"smiles": "O=C(NCCS(=O)(=O)N1CCN(c2ccccc2)CC1)C(c1ccccc1)c1ccccc1", "survival": "inactive: 90%"}
{"smiles": "COc1cccc(N2CCN(S(=O)(=O)c3ccc4[nH]c5c(c4c3)CCCC5)CC2)c1", "survival": "inactive: 71%"}
{"smiles": "O=C(Nc1ccccc1Br)C1CCCN(S(=O)(=O)c2cccc3nsnc23)C1", "note": "(centres undefined)", "survival": "inactive: 79%"}
{"smiles": "Cn1ccnc1SC(=O)N1c2ccccc2Sc2ccccc21", "survival": "inactive: 101%"}
{"smiles": "CCc1ccc(OCC(=O)N(Cc2ccc(Cl)cc2)C2CCS(=O)(=O)C2)cc1", "note": "(centres undefined)", "survival": "inactive: 88%"}
{"smiles": "O=C(CSc1nc2c([nH]c3ccccc32)c(=O)n1-c1ccc(F)cc1)N1CCCCC1", "survival": "inactive: 101%"}
{"smiles": "CCOC(=O)c1oc2c(c1C)-c1nn(Cc3ccc(Cl)cc3)cc1CC2", "survival": "active: 2%"}
{"smiles": "Cc1noc(C)c1S(=O)(=O)N1CCC(C(=O)N2CCN(c3ccccc3)CC2)CC1", "survival": "inactive: 128%"}
{"smiles": "CCC(C)NC(=O)Cn1c(=O)cc(-c2ccccc2)c2c(C)nn(C)c21", "note": "(centres undefined)", "survival": "inactive: 84%"}
{"smiles": "Cn1c(NCCO)nc2c1c(=O)n(Cc1ccccc1Cl)c(=O)n2C", "survival": "inactive: 73%"}
{"smiles": "COc1ccccc1NC(=O)Cn1nnc(C(=O)NCc2ccc3c(c2)OCO3)c1N", "survival": "inactive: 129%"}
{"smiles": "CC(O)c1nc2ccc(Oc3ccc4nc(C(C)O)[nH]c4c3)cc2[nH]1", "note": "(centres undefined)", "survival": "inactive: 102%"}
{"smiles": "CC(C)OC(=O)C1=C(N)OC2=C(C(=O)CCC2)C1c1ccccc1F", "note": "(centres undefined)", "survival": "inactive: 114%"}
{"smiles": "COc1cc2[nH]c(=O)n(CCCCCC(=O)N3CCN(c4cccc(C(F)(F)F)c4)CC3)c(=O)c2cc1OC", "survival": "inactive: 87%"}
{"smiles": "COc1cccc(Oc2nc3c(c(=O)n(Cc4ccccc4F)c(=O)n3C)n2C)c1", "survival": "inactive: 75%"}
{"smiles": "COc1ccccc1C(=O)Nc1cc2c(cc1N1CCOCC1)n(C)c(=O)n2C", "survival": "inactive: 134%"}
{"smiles": "CC(C)c1ccc(NC(=O)CN(C)S(=O)(=O)c2ccc3c(c2)c(=O)n(C)c(=O)n3C)cc1", "survival": "inactive: 87%"}
{"smiles": "CCn1c(=O)n(CC)c2cc(N3CCCCC3)c(NC(=O)Nc3ccccc3Cl)cc21", "survival": "inactive: 76%"}
{"smiles": "COc1cccc(N2CCN(C(=O)c3c(C)oc4ncnc(N5CCOCC5)c34)CC2)c1", "survival": "inactive: 72%"}
{"smiles": "Cc1c(C(=O)N(C)C)sc2c1c(=O)n(-c1ccc(Cl)c(Cl)c1)c(=O)n2CC(=O)Nc1cccc(C(F)(F)F)c1", "survival": "inactive: 64%"}
{"smiles": "Cc1cccc(NS(=O)(=O)c2ccc3oc(=O)c4ncn(C)c4c3c2)c1C", "survival": "inactive: 120%"}
{"smiles": "C/C(=N\\NC(=O)c1cc2ccccc2cc1O)c1ccc(N)cc1", "survival": "inactive: 88%"}
{"smiles": "CC(=O)Oc1c(O)ccc2c(C)cc(=O)oc12", "survival": "inactive: 101%"}
{"smiles": "O=S(=O)(c1ccc2c(c1)OCCO2)N1CCN(c2ncccn2)CC1", "survival": "inactive: 99%"}
{"smiles": "O=C1CSC(=Nc2cccc(C(=O)O)c2)N1", "survival": "inactive: 101%"}
{"smiles": "CCOC(=O)Cc1ccc(NC(=O)NCc2ccc3c(c2)CCN3C(=O)CC)cc1", "survival": "inactive: 83%"}
{"smiles": "O=C(CCS(=O)(=O)c1cc(Br)cc2c1N(C(=O)C1CC1)CC2)Nc1ccc(Br)cc1F", "survival": "inactive: 86%"}
{"smiles": "CCc1ccccc1N(C)C(=O)Cn1cnc2sc(C)c(S(=O)(=O)N3CCN(c4ncccn4)CC3)c2c1=O", "survival": "inactive: 70%"}
{"smiles": "COc1ccc(NC(=O)Cn2c(=O)oc3cc(S(=O)(=O)N4CCC(C)CC4)ccc32)c(OC)c1", "survival": "inactive: 96%"}
{"smiles": "CCOc1ccccc1CNC(=O)CCn1ccc2cc(S(=O)(=O)N3CCC(C)CC3)ccc21", "survival": "inactive: 69%"}
{"smiles": "COC(=O)c1ccc(Cn2nnc3sc4c(c3c2=O)CCC(C)C4)cc1", "note": "(centres undefined)", "survival": "inactive: 75%"}
{"smiles": "CCCS(=O)(=O)c1c(Nc2ccccc2C)sc(C(=O)c2ccccc2)c1N", "survival": "inactive: 46%"}
{"smiles": "Cc1ccc(NS(=O)(=O)c2cc(Br)cc3c2N(C(=O)C2CC2)CC3)cc1C", "survival": "inactive: 69%"}
